In this assay the test system is E. coli cells (CA 8000), λ phage. In words: λ phage adsorption on E. coli cells. The note with it: niaziridin 1 μg/ml, MOI=10. As for the experimental part:
Overnight grown bacterial culture (Escherichia coli, CA 8000) was divided into 5 ml of aliquot each in screw cap tubes. One of the tube with the bacterial culture was treated with niaziridin to a final concentration of 1 μg/ml. Both the control and the treated tubes were incubated at 37° C. for 4 hours. The cultures were then infected with λ phage (MOI=10) for 10 minutes at 37° C. (for adsorption) followed by centrifugation at 10000 RPM for 10 minutes at 4° C.
The supernatant and the pellets for both treated and untreated cultures were then compared for the phage titer by plating on top agar containing sensitive bacteria at different dilutions. The phage titer in the supernatant of the treated culture was reduced by 2.6 folds indicating increase in adsorption to the bacterial cells harvested in the pellet.

Regarding `CC1OC(Oc2ccc(CC#N)cc2O)C(O)C(O)C1O` (stereo not shown) [Niaziridin, NIAZIRIDIN], the “Reduction of phage titer in the supernatant of the treated culture” value is on record as 2.6 folds.

Values taken from patent publication US6858588B2, “Nitrile glycoside useful as a bioenhancer of drugs and nutrients, process of its isolation from moringa oleifera” (Council of Scientific and Industrial Research, priority 2003, dated 2005).
